{
  "source": "patent US20080311575A1",
  "about": "(published 2008)",
  "target": "T1, 35S-labeled full-length ERα(1-595) (Homo sapiens (Human), UniProt P03372 1-595, 35S-labeled in in vitro transcription/translation (TNT) reactions)",
  "T1 construct": "In vitro translated from pcDNA3.1-ERα; also called 35S-labeled ERα",
  "T1 sequence": "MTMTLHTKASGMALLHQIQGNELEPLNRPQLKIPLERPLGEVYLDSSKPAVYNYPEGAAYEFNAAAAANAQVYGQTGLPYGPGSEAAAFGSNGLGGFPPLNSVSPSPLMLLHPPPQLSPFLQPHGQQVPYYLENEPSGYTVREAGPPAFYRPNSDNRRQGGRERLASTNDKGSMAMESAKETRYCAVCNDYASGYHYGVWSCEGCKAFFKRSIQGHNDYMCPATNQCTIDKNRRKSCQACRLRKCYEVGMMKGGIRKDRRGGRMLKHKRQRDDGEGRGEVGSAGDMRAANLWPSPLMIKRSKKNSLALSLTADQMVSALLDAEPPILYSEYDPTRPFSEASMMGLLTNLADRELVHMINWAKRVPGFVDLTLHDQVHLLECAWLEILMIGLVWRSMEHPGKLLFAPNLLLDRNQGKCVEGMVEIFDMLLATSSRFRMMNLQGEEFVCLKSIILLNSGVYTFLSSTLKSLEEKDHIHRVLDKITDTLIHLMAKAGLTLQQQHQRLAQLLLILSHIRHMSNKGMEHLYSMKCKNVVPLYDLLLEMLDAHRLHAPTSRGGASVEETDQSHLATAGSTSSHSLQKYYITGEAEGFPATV",
  "experiment": "GST pull-down on glutathione beads, 35S-labeled ERα, phosphoimaging",
  "protocol": "To localize the region within MUC1-CD that interacts with ERα, ³⁵S-labeled full length ERα was incubated with deletion mutants of MUC1-CD.",
  "data": [
    {"binder": "GST (other, Negative control in the pull-down assays; also called glutathione S-transferase) not shown", "values": [
      {"measurement": "binding result", "value": "no binding"}
    ]}
  ]
}
